According to PubChem BioAssay AID504339 (National Center for Advancing Translational Sciences (NCATS), 2011):
The whole screen tested about 390,000 compounds, of which about 17,000 (4.4%) were called active. This list was built around the results that the source calls inconclusive (neither active nor inactive); the mix of calls is not that of the screen. Calls follow the shape of the dose curve; as a rule, active = well fitted inhibition curve with a large enough effect; inconclusive = small, poorly fitted or top-dose-only effect; inactive = no such curve, though single readings can be large or run the other way. A potency beside an inconclusive call is a rough fit, not a confirmed value.

Target: Lysine-specific demethylase 4A (Homo sapiens) (UniProt O75164)
UniProt O75164, sequence (O75164 whole entry, looked up, the tested form may be a part): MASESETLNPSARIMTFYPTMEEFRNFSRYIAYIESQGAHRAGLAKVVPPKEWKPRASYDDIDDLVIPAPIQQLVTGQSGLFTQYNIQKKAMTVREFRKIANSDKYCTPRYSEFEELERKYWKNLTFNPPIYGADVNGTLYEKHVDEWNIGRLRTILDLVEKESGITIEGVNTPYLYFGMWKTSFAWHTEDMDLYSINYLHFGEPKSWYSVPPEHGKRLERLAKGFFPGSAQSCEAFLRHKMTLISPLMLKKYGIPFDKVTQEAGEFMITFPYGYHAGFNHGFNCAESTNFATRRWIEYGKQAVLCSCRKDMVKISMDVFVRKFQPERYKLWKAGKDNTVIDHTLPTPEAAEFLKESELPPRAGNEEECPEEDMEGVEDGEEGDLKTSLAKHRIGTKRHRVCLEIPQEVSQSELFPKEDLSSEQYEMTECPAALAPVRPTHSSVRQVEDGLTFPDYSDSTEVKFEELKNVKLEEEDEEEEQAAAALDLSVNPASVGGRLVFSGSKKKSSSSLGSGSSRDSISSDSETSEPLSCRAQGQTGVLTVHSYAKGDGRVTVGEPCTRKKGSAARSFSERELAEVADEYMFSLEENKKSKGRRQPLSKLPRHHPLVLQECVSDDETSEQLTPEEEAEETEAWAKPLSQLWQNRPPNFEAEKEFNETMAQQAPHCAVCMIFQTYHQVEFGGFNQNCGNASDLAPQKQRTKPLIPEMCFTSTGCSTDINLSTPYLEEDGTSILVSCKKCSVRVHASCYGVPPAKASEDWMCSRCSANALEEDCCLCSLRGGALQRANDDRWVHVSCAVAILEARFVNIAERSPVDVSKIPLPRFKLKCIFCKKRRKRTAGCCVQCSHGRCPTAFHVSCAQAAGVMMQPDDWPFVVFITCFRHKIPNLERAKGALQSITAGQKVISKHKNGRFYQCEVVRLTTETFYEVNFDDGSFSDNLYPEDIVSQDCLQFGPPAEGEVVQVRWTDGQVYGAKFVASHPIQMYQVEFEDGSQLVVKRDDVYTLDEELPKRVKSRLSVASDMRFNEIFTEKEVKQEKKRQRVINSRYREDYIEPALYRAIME
Test: qHTS Assay for Inhibitors of JMJD2A-Tudor Domain; also: nearly all actives have a fitted effect of over 50% in size
Settings: AlphaScreen JMJD2A-Tudor / H3K4me3 peptide binding; activity change, negative = inhibition: at 114 µM (top of the series)
% is scaled to controls: 0 for no effect and ±100 for the full control effect; potency is read from the fitted curve at half-maximal effect; tags tell the direction and shape of the fitted curve.

Row | Compound | Potency | activity change, negative = inhibition
1 | O=C(NNc1c(Cl)cccc1Cl)c1cccs1 | inconclusive: 3.55 µM [inhibitor, single point] | –
2 | N#Cc1c(Nc2ccccc2)sc(C(=O)c2ccccc2)c1N | inconclusive: 79.4 µM [inhibitor, partial curve] | –
3 | O=C(Cc1c(C(=O)O)[nH]c2ccccc12)Nc1ccc2c(c1)OCO2 | inactive | –
4 | CCN1C(=O)C(Cc2nc3ccccc3c(=O)n2-c2cccc(C)c2)c2ccccc21 (stereo not drawn) | inconclusive: 50.1 µM [inhibitor, partial curve, poor fit] | –
5 | CCOC(=O)C(NCCCO)c1ccccc1 (stereo not drawn) | active: 2.51 µM | –
6 | O=C(N/N=C/c1cccs1)c1cc(-c2ccc(Cl)s2)[nH]n1 | inconclusive: 22.4 µM [inhibitor, single point] | –
7 | Cc1ccsc1/C=N/n1c(=S)[nH]nc(C)c1=O | inconclusive: 89.1 µM [inhibitor, single point] | –
8 | O=C(c1ccc(Br)o1)N1N=C(c2ccc(Cl)cc2)CC1c1ccco1 (stereo not drawn) | inconclusive: 25.1 µM [inhibitor, full curve] | –
9 | CCN(c1cccc(C)c1)C(C(=O)Nc1ccc(OC)cc1)c1cc2c(cc1[N+](=O)[O-])OCO2 (stereo not drawn) | inconclusive: 11.2 µM [inhibitor, full curve] | –
10 | CCc1ccc(N2CC(C(=O)Nc3nc4ccc(S(C)(=O)=O)cc4s3)CC2=O)cc1 (stereo not drawn) | inactive | –
11 | O=[N+]([O-])c1cc(C(F)(F)F)ccc1NC1CCN(Cc2ccccc2)CC1 | active: 35.5 µM | –
12 | Cn1c(Cc2cccc3ccccc23)nnc1SCc1ccc([N+](=O)[O-])cc1 | inconclusive: 39.8 µM [inhibitor, single point] | –
13 | COc1cccc(N/C(SCc2cccc([N+](=O)[O-])c2)=C(/C#N)C(N)=O)c1 | inconclusive: 89.1 µM [inhibitor, single point] | –
14 | C=CCc1cc(C)ccc1OCCOCCn1ccnc1 | active: 3.16 µM | –
15 | Cc1cc(-c2nnco2)c(C)n1-c1ccc(F)cc1 | inconclusive: 56.2 µM [inhibitor, partial curve] | –
16 | Cc1ccc(S(=O)(=O)NCc2ccncc2)cc1 | inactive | –
17 | C=CCN1CCc2c(cc(O)c(O)c2Cl)C(c2ccccc2)C1 (stereo not drawn) | inconclusive: 56.2 µM [inhibitor, partial curve] | –
18 | CC12CCC(C/C1=N\N=C1\NC(=O)/C(=C\c3cccc(Br)c3)S1)C2(C)C (stereo not drawn) | inconclusive: 31.6 µM [inhibitor, full curve, poor fit] | –
19 | O=C(Nn1c(Cc2cccs2)nc2ccccc2c1=O)c1ccc(F)c(F)c1 | inactive | –
20 | Nc1nonc1-c1nc2ccccc2n1CC(=O)Nc1cccc(C(F)(F)F)c1 | inactive | –
21 | CC1CN(C(=O)CSc2nc(N)cc(N)n2)CC(C)O1 (stereo not drawn) | inactive | –
22 | CC(C)(C)c1csc(NC(=O)c2ccc3nccnc3c2)n1 | inactive | –
23 | COc1ccccc1CCNC(=O)c1cc(-c2ccncc2)nc2ccc(Br)cc12 | inconclusive: 56.2 µM [inhibitor, partial curve] | –
24 | COc1cc(OC)c(NC(=O)C(CC(C)C)N2Cc3ccccc3C2=O)cc1Cl (stereo not drawn) | inconclusive: 89.1 µM [inhibitor, partial curve] | –
25 | FC(F)(F)c1cccc(NCc2n[nH]c(=S)n2C2CCCCC2)c1 | inconclusive: 89.1 µM [inhibitor, partial curve] | –

Row | Compound | Potency | activity change, negative = inhibition
26 | CC(=O)Nc1ccc(NS(=O)(=O)c2ccc3c(c2)n(C)c(=O)n3C)cc1 | inactive | –
27 | Cc1cc(C)nc(NC(=S)NC(=O)c2ccccc2)n1 | inconclusive: 3.55 µM [inhibitor, single point] | –
28 | O=C(O)/C=C/C(=O)Nc1ccccc1SC(F)(F)C(F)(F)C(F)(F)F | inconclusive: 100 µM [inhibitor, single point] | –
29 | CCOC(=O)[C@H]1[C@H]2COc3ccc(OC)cc3[C@@H]2N2C(=O)[C@H](C)NC(=O)[C@@]12C | inactive | –
30 | COc1cc([N+](=O)[O-])ccc1NC(=O)N1CCCCCC1 | inactive | –
31 | Cc1ccc2cc(CCNC(=O)c3ccco3)c(=O)[nH]c2c1C | inactive | –
32 | COc1cc(/C=N/O)ccc1Oc1ccc([N+](=O)[O-])cc1[N+](=O)[O-] | inconclusive: 20 µM [inhibitor, partial curve] | –
33 | COc1ccc(C(c2nnnn2C2CCCCC2)N2CCN(c3ccc(OC)cc3)CC2)cc1 (stereo not drawn) | inconclusive: 50.1 µM [inhibitor, partial curve] | –
34 | COc1ccc(NC(=O)CNC(=O)C2CCCCC2)cc1OC | inactive | –
35 | O=C(O)C1OC(Oc2cc3oc(-c4ccccc4)cc(=O)c3c(O)c2O)C(O)C(O)C1O (stereo not drawn) | active: 20 µM | –
36 | Cc1cccc(C(=O)OCC(=O)NCc2ccco2)c1 | inconclusive: 35.5 µM [inhibitor, full curve] | –
37 | CCC(C)[C@@H](C(=O)Nc1ccc2c(c1)OCO2)N1Cc2ccccc2C1=O (stereo partly drawn) | inconclusive: 79.4 µM [inhibitor, single point] | –
38 | O=C(O)c1cc(O)c2c(c1)C(=O)c1cc(O)cc(O)c1C2=O | inconclusive: 56.2 µM [inhibitor, partial curve] | –
39 | Cn1c(SCc2cccc([N+](=O)[O-])c2)nc2c(c1=O)SCC2 | active: 56.2 µM | –
40 | Cc1ccccc1-n1c(-c2csc3ccccc23)n[nH]c1=S | inconclusive: 70.8 µM [inhibitor, single point] | –
41 | COc1cc2nc(=S)n3[nH]c(COc4ccccc4C)nc3c2cc1OC | inactive | –
42 | Cc1cc(=O)[nH]c(SCC(=O)OCc2ccccc2)c1C#N | inconclusive: 20 µM [inhibitor, full curve, poor fit] | –
43 | CC/C(=N\NC(=O)c1c(C)nc2ccccn12)c1ccccc1 | inconclusive: 35.5 µM [inhibitor, single point] | –
44 | Cc1csc(NC(=O)CSc2nc3[nH]ncc3c(=O)[nH]2)n1 | inconclusive: 15.8 µM [inhibitor, full curve] | –
45 | O=C1CCC[C@@H]2C[C@@]3(C[C@@H]4CCN1[C@H]24)Nc1cc(Cl)ccc1NC3=NCc1ccccc1 | inconclusive: 50.1 µM [inhibitor, partial curve] | –
46 | CCOc1ccc2nc(NC(=O)c3cc([N+](=O)[O-])ccc3N3CCOCC3)sc2c1 | inconclusive: 6.31 µM [inhibitor, full curve] | –
47 | O=C(O)COc1ccccc1C(Nc1cccnc1)c1cc(Cl)c2cccnc2c1O (stereo not drawn) | active: 22.4 µM | –
48 | Cc1cccc(N2CCN(C(=O)c3cc4ccc5cccnc5c4[nH]3)CC2)c1C | inconclusive: 50.1 µM [inhibitor, partial curve] | –
49 | Cc1ccc(C)c(N2CCN(C3(c4ccccc4)C(=O)c4ccccc4C3=O)CC2)c1 | inconclusive: 3.16 µM [inhibitor, full curve] | –
50 | FC(F)(F)c1n[nH]c(=S)n1/N=C/c1ccco1 | inconclusive: 50.1 µM [inhibitor, partial curve] | –

Row | Compound | Potency | activity change, negative = inhibition
51 | CCOc1ccccc1C(=O)NCC(=O)NCC(C)(C)N1CCOCC1 | inactive | –
52 | Cc1cc(NC(=O)c2cc(-c3ccc(OC(C)C)cc3)nc3ccccc23)no1 | inactive | –
53 | CC(=O)N1N=C(c2ccccc2)CC1c1cn(C)c2ccccc12 (stereo not drawn) | inconclusive: 35.5 µM [inhibitor, full curve] | –
54 | Cc1ccc(NC(=S)NNC(=S)Nc2ccc(C)cc2C)cc1 | inconclusive: 10 µM [inhibitor, full curve] | –
55 | Cc1c(C(=O)O)nn(-c2ccccc2)c(=O)c1C#N | inactive | –
56 | O=c1c2ccc([N+](=O)[O-])cc2ncn1CCOc1ccccc1 | inconclusive: 89.1 µM [inhibitor, single point] | –
57 | Cn1c(N2CCOCC2)nc(-c2ccccc2)c1-c1ccccc1 | inactive | –
58 | O=C(c1ccnc(Cl)c1)N1CCCC(Nc2ccc(F)cc2)C1 (stereo not drawn) | inactive | –
59 | Cc1ccc(-n2c(N)c(C(=O)N3CCOCC3)sc2=S)cc1 | inconclusive: 56.2 µM [inhibitor, partial curve] | –
60 | COc1ccc(NC(=S)N2CCC(c3ccc(C)cc3)C2)cc1 (stereo not drawn) | inactive | –
61 | CN(C)c1ccc(-c2nc3ccc(Cl)cn3c2Nc2ccc3c(c2)OCCO3)cc1 | inconclusive: 14.1 µM [inhibitor, partial curve] | –
62 | CC(=O)C1=C(C)NC(SCC(N)=O)=C(C#N)C1c1sccc1C (stereo not drawn) | inconclusive: 70.8 µM [inhibitor, single point] | –
63 | C=C(C)C1CC=C(C)/C(=N/NC(=O)CCCNc2cccc(C)c2)C1 (stereo not drawn) | – | inconclusive: -46.7% [inhibitor]
64 | Cc1ccccc1Nc1nc(N)nc(COC(=O)/C=C/c2ccco2)n1 | inactive | –
65 | CCCCn1c2ccc(C)cc2c2nnc(SCCN3CCCCC3)nc21 | inactive | –
66 | COc1ccc(CNC(=O)COc2cc(O)c3c(c2)OC(C)(C)CC3=O)c(OC)c1 | active: 89.1 µM | –
67 | N#CCCN(Cc1ccccc1)C(=O)c1nccnc1C(=O)O | inconclusive: 89.1 µM [inhibitor, single point] | –
68 | COC(=O)c1sc2ccccc2c1-n1cccc1C(=O)C(=O)Nc1ccc(Cl)cc1 | inconclusive: 44.7 µM [inhibitor, partial curve] | –
69 | NNc1nc2ccc(F)cc2s1 | inconclusive: 89.1 µM [inhibitor, single point] | –
70 | CN(CCN(C)C(C)(C)C)C(=O)C(c1ccccc1)c1ccccc1 | active: 20 µM | –
71 | CCC(C)n1c(OC)nc2c1c(=O)n(C)c(=O)n2C (stereo not drawn) | active: 11.2 µM | –
72 | COc1ccccc1N1CCN(C(=O)c2cc3cc(F)ccc3[nH]2)CC1 | inconclusive: 100 µM [inhibitor, partial curve] | –
73 | C=CCN1C(c2ccc(Br)cc2)=CS/C1=C(/C#N)c1nnc(N2CCOCC2)n1-c1ccccc1 | – | inconclusive: -56.5% [inhibitor]
